# The supplement of paper PMC8728848
# The list shows a part of the results.
# Assays:
# Experiment in all cases: glycan array binding signal (z-score within array); higher = stronger binding
# Conditions in all cases: glycan notation: IUPAC condensed, linker removed
# GalNAc(b1-3)Gal = target: GalNAc(b1-3)Gal
# Outline: (§1)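 Columns mapping to the same glycan were averaged after glycan names were converted to IUPAC-condensed notation. The data come from 3228 arrays in the Consortium for Functional Glycomics database, limited to those with an available protein sequence. Binding is reported as a within-array Z-score averaged across arrays of one protein sequence and across linkers.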
# [1] = target: GalNAc(b1-3)Gal(a1-4)Gal(b1-4)GlcNAc
# Outline: as §1
# [2] = target: GalNAc(b1-3)Gal(a1-4)Gal(b1-4)GlcNAc(b1-3)Gal(b1-4)Glc
# Outline: as §1
# [3] = target: GalNAc(b1-3)Gal(a1-6)Gal(b1-4)Glc
# Outline: as §1
# GalNAc(b1-3)GalNAc = target: GalNAc(b1-3)GalNAc
# Outline: as §1
# GalNAc(b1-3)GlcNAc = target: GalNAc(b1-3)GlcNAc
# Outline: as §1
# GalNAc(b1-4)Gal(b1-4)Glc = target: GalNAc(b1-4)Gal(b1-4)Glc
# Outline: as §1
# GalNAc(b1-4)GlcNAc = target: GalNAc(b1-4)GlcNAc
# Outline: as §1
# [4] = target: GalNAc(b1-4)GlcNAc(b1-2)Man
# Outline: as §1
# [5] = target: GalNAc(b1-4)GlcNAc(b1-2)Man(a1-3)[GalNAc(b1-4)GlcNAc(b1-2)Man(a1-6)]Man(b1-4)GlcNAc(b1-4)GlcNAc
# Outline: as §1
# [6] = target: GalNAc(b1-4)GlcNAc(b1-3)GalNAc(b1-4)GlcNAc
# Outline: as §1
# GalNAc(b1-4)GlcNAc6S = target: GalNAc(b1-4)GlcNAc6S
# Outline: as §1
# GalNAc(b1-6)GalNAc = target: GalNAc(b1-6)GalNAc
# Outline: as §1
# GalNAc3S(b1-4)GlcNAc = target: GalNAc3S(b1-4)GlcNAc
# Outline: as §1
# GalNAc3S(b1-4)GlcNAc3S = target: GalNAc3S(b1-4)GlcNAc3S
# Outline: as §1
# [7] = target: GalNAc3S(b1-4)[Fuc(a1-3)]GlcNAc
# Outline: as §1
# GalNAc4S6S(b1-4)GlcNAc = target: GalNAc4S6S(b1-4)GlcNAc
# Outline: as §1
# GalNAc6S(b1-4)GlcNAc = target: GalNAc6S(b1-4)GlcNAc
# Outline: as §1
# Glc(a1-4)Glc = target: Glc(a1-4)Glc
# Outline: as §1
# [8] = target: Glc(a1-4)Glc(a1-4)Glc(a1-4)Glc
# Outline: as §1
# Glc(a1-6)Glc(a1-6)Glc = target: Glc(a1-6)Glc(a1-6)Glc
# Outline: as §1
# [9] = target: Glc(a1-6)Glc(a1-6)Glc(a1-6)Glc
# Outline: as §1
# Glc(b1-4)Glc = target: Glc(b1-4)Glc
# Outline: as §1
# Glc(b1-6)Glc = target: Glc(b1-6)Glc
# Outline: as §1
# GlcA(b1-3)Gal = target: GlcA(b1-3)Gal
# Outline: as §1
# GlcA(b1-3)GlcNAc = target: GlcA(b1-3)GlcNAc
# Outline: as §1
# GlcA(b1-6)Gal = target: GlcA(b1-6)Gal
# Outline: as §1
# [10] = target: GlcA3S(b1-3)Gal(b1-4)GlcNAc(b1-2)Man
# Outline: as §1
# [11] = target: GlcA3S(b1-3)Gal(b1-4)GlcNAc(b1-3)Gal(b1-4)Glc
# Outline: as §1
# [12] = target: GlcNAc(a1-3)Gal(b1-4)GlcNAc
# Outline: as §1
# [13] = target: GlcNAc(a1-4)Gal(b1-3)GlcNAc
# Outline: as §1
# [14] = target: GlcNAc(a1-4)Gal(b1-4)GalNAc
# Outline: as §1
# [15] = target: GlcNAc(a1-4)Gal(b1-4)GlcNAc
# Outline: as §1
# [16] = target: GlcNAc(a1-4)Gal(b1-4)GlcNAc(b1-3)Gal(b1-4)Glc
# Outline: as §1
# [17] = target: GlcNAc(a1-4)Gal(b1-4)GlcNAc(b1-3)Gal(b1-4)GlcNAc
# Outline: as §1
# [18] = target: GlcNAc(a1-4)Gal(b1-4)GlcNAc(b1-3)Gal(b1-4)GlcNAc(b1-3)Gal(b1-4)GlcNAc
# Outline: as §1
# [19] = target: GlcNAc(a1-4)Gal(b1-4)GlcNAc(b1-3)Gal(b1-4)[Fuc(a1-3)]GlcNAc(b1-3)Gal(b1-4)[Fuc(a1-3)]GlcNAc
# Outline: as §1
# [20] = target: GlcNAc(a1-6)Gal(b1-4)GlcNAc
# Outline: as §1
binder,measurement,setting,value
Epa3to1 (Candida glabrata) (protein) MGSSHHHHHHSSGLVPRGSHMKRELSSQNPFGYPIGCSPQDVAIIPGLTMELYSYPIVSGTPPNCYDASYVDPEYPRTGYLKRKMVGKSTGVTGNLNYKYSVEKACMVKYGNLPAGYNYNEPLTVSNFTMILYGYFKAQTTGLHTFFVNADDLLYINFGAGNAFDCCKREDSKTKLGEYVAYDIWHVDSSKNKVSLFLEKDLYYPIRMFFNNREYDSSLDLSFSVNGATDQISDFSGYLYSVPDQPDTCPAHIGYDTTCR,glycan array binding signal (z-score),GalNAc(b1-3)Gal,0.105
same,glycan array binding signal (z-score),[1],-0.495
same,glycan array binding signal (z-score),[2],0.126
same,glycan array binding signal (z-score),[3],-0.584
same,glycan array binding signal (z-score),GalNAc(b1-3)GalNAc,-0.174
same,glycan array binding signal (z-score),GalNAc(b1-3)GlcNAc,-0.332
same,glycan array binding signal (z-score),GalNAc(b1-4)Gal(b1-4)Glc,0.247
same,glycan array binding signal (z-score),GalNAc(b1-4)GlcNAc,-0.393
same,glycan array binding signal (z-score),[4],-0.988
same,glycan array binding signal (z-score),[5],0.011
same,glycan array binding signal (z-score),[6],-0.26
same,glycan array binding signal (z-score),GalNAc(b1-4)GlcNAc6S,-0.256
same,glycan array binding signal (z-score),GalNAc(b1-6)GalNAc,-0.4
same,glycan array binding signal (z-score),GalNAc3S(b1-4)GlcNAc,-0.299
same,glycan array binding signal (z-score),GalNAc3S(b1-4)GlcNAc3S,0.281
same,glycan array binding signal (z-score),[7],-0.269
same,glycan array binding signal (z-score),GalNAc4S6S(b1-4)GlcNAc,-0.139
same,glycan array binding signal (z-score),GalNAc6S(b1-4)GlcNAc,-0.544
same,glycan array binding signal (z-score),Glc(a1-4)Glc,-0.015
same,glycan array binding signal (z-score),[8],-0.029
same,glycan array binding signal (z-score),Glc(a1-6)Glc(a1-6)Glc,-0.217
same,glycan array binding signal (z-score),[9],-0.221
same,glycan array binding signal (z-score),Glc(b1-4)Glc,-0.61
same,glycan array binding signal (z-score),Glc(b1-6)Glc,-0.415
same,glycan array binding signal (z-score),GlcA(b1-3)Gal,-0.01
same,glycan array binding signal (z-score),GlcA(b1-3)GlcNAc,-0.275
same,glycan array binding signal (z-score),GlcA(b1-6)Gal,0.35
same,glycan array binding signal (z-score),[10],0.286
same,glycan array binding signal (z-score),[11],-0.437
same,glycan array binding signal (z-score),[12],-0.637
same,glycan array binding signal (z-score),[13],-0.807
same,glycan array binding signal (z-score),[14],-0.908
same,glycan array binding signal (z-score),[15],-0.345
same,glycan array binding signal (z-score),[16],-0.208
same,glycan array binding signal (z-score),[17],-0.188
same,glycan array binding signal (z-score),[18],-0.389
same,glycan array binding signal (z-score),[19],-0.037
same,glycan array binding signal (z-score),[20],0.388
